The whole screen tested about 310,000 compounds, of which about 18,000 (5.8%) were called active. The inconclusive results got no clear call from the source; some entries with a clear call stand among them for comparison. The call rests on the fitted dose curve; in most records, active means well fitted inhibition curve with a large enough effect; inconclusive means small, poorly fitted or top-dose-only effect, or another doubt; inactive means no such curve, though single readings can be large or run the other way. No potency is given beside an inconclusive call; the fits are too rough.
Assay: Primary qHTS for delayed death inhibitors of the malarial parasite plastid, 48 hour incubation
Settings: P. falciparum luciferase growth in erythrocytes; series mostly up to 28.7 µM
How it was run: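 Cell-based growth assay: transgenic P. falciparum expressing firefly luciferase, cultured in red cells within RPMI 1640 containing 0.5% w/v Albumax, 24 mM bicarbonate and gentamycin. A drop in luciferase activity indicates inhibition.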
With `Nc1nc(CSC(=S)N2CCN(c3ccccc3)CC2)nc(Nc2ccc(F)cc2)n1` the Potency was inconclusive [inhibitor, single point]. For `CC(C)CN(C(=O)/C=C/c1nc2ccccc2s1)C1CCS(=O)(=O)C1` (centres undefined), the Potency was inconclusive [inhibitor, partial curve, poor fit]. For `O=Cc1ccc(-c2cc(Cl)ccc2Cl)[nH]1`, the Potency was “inactive”. For `CCCc1nc(SCC(=O)N2c3ccccc3CC2C)c2c(C)c(C)sc2n1` (centres undefined), the Potency was inconclusive [inhibitor, partial curve, poor fit]. With `COC(=O)CC1(C(=O)OC)Oc2ccc(Br)cc2C(=O)N1c1cc(Cl)cc(Cl)c1` (centres undefined) the Potency was active: 5.22 µM. With `COc1ccc(S(=O)(=O)N2CCN(c3nc4ccccc4nc3-n3nc(C)cc3C)CC2)cc1` the Potency was inconclusive [inhibitor, partial curve]. With `Nc1nonc1-n1nnc(C(=O)N/N=C/c2cccc(F)c2)c1-c1ccc2c(c1)OCO2` the Potency was active: 0.117 µM. With `Cc1ccc(S(=O)(=O)N2CCC(C(=O)OCC(=O)NCCc3ccccc3)CC2)cc1C` the Potency was inconclusive [inhibitor, partial curve, poor fit]. For `O=C(COC(=O)Cc1cccc(C(F)(F)F)c1)NCc1ccco1`, the Potency was inconclusive [inhibitor, single point]. In the case of `Cc1ncc(CN2CCCCC2C(=O)Nc2ccc(Oc3ccccc3)nc2)cn1` (centres undefined), the Potency is reported as “inactive”. For `Cc1ccc(-n2c(C)cc(C(=O)CSc3nnnn3C)c2C)cc1`, the Potency was inconclusive [inhibitor, single point]. In the case of `CCCCNC(=S)Nc1ccc(C(F)(F)F)cc1`, the Potency is reported as inconclusive [inhibitor, single point]. In the case of `CCOC(=O)c1c(-c2ccc(OC)cc2)csc1/N=C/C1=C(O)CCCC1=O`, the Potency is reported as “inactive”. For `CC(NC(=O)C12CC3CC(CC(C3)C1)C2)C(=O)N/N=C/C1=C(N2CCOCC2)C(=C\c2ccccc2)/CC1` (centres undefined), the Potency was inconclusive [inhibitor, partial curve]. For `CCC(=O)OC1(C(=O)CCl)[C@@H](C)C[C@H]2[C@@H]3CCC4=CC(=O)C=C[C@]4(C)[C@@]3(F)[C@@H](O)C[C@@]21C` (some centres undefined), the Potency was active: 2.33 µM. With `Cc1ccc(NC(=O)COc2cccc(C)c2C)cc1S(=O)(=O)N1CCCCCC1` the Potency was inconclusive [inhibitor, full curve, poor fit]. In the case of `O=C1CCCc2oc3c(cc(NS(=O)(=O)c4ccc5c6c(cccc46)C(=O)N5)c4ccccc43)c21`, the Potency is reported as inconclusive [inhibitor, partial curve]. For `C=CCSC1=C(C#N)C(c2cc(Br)c(O)c(OC)c2)CC(=O)N1` (centres undefined), the Potency was inconclusive [inhibitor, single point]. For `O=C(c1cc(=O)c2ccccc2o1)N(Cc1ccccc1)C1CCS(=O)(=O)C1` (centres undefined), the Potency was “inactive”. In the case of `CC(=O)c1cccc(S(=O)(=O)NCC(C)(C)N2CCOCC2)c1`, the Potency is reported as “inactive”. With `CC(=O)C1=C(C)NC(SCc2cccc([N+](=O)[O-])c2)=C(C#N)C1c1ccco1` (centres undefined) the Potency was “inactive”. With `Cc1cccc(N2CCN(C(=O)NCc3ccc(Cl)cc3)CC2)c1` the Potency was inconclusive [inhibitor, full curve, poor fit]. In the case of `CC(=O)Nc1ccc(NC(=O)/C=C/c2ccccc2)cc1`, the Potency is reported as inconclusive [inhibitor, full curve, poor fit]. With `Cc1ccc(C(=O)COC(=O)c2cc(Cl)nc3ccccc23)cc1C` the Potency was inconclusive [inhibitor, partial curve]. For `CC(Cl)C(=O)c1c[nH]c2ccccc12` (centres undefined), the Potency was inconclusive [inhibitor, partial curve, poor fit]. For `Cc1nn2c(c1-c1ccccc1)NC1=C(C(=O)CCC1)C2c1ccccc1` (centres undefined), the Potency was inconclusive [inhibitor, single point]. In the case of `Cc1cccc2c1-c1sc(C(=O)NCCCN3CCc4ccccc4C3)cc1CO2`, the Potency is reported as inconclusive [inhibitor, single point]. For `CCOc1ccc(C(=O)O/N=C(\N)c2ccc([N+](=O)[O-])cc2)cc1OCC`, the Potency was inconclusive [inhibitor, single point]. In the case of `CN1/C(=C\C(=O)c2cccs2)C(C)(C)c2ccccc21`, the Potency is reported as active: 9.28 µM. With `Cc1cccc(NC(=O)COc2cccc3c2CCN(Cc2ccccc2)C3=O)c1C` the Potency was inconclusive [inhibitor, single point]. For `CCOC(=O)N1CCN(S(=O)(=O)c2ccc(Br)s2)CC1`, the Potency was “inactive”. With `COc1ccc2nc(/N=C(\N)NC(=O)Nc3ccccc3)nc(C)c2c1` the Potency was active: 1.85 µM. In the case of `COc1cc(OC)cc(C(=O)NNC(=O)CNC(=O)c2ccc(Br)o2)c1`, the Potency is reported as inconclusive [inhibitor, single point]. In the case of `Cc1ccc(-c2nnc(Nc3ccc(OCC(N)=O)cc3)c3ccccc23)cc1S(N)(=O)=O`, the Potency is reported as active: 13.1 µM. With `COc1cccc(OCC(=O)Nc2ccccc2C(=O)Nc2ccc(C(=O)O)cc2)c1` the Potency was inconclusive [inhibitor, partial curve]. For `Oc1ccc(Cl)cc1-c1cc(-c2cccc(Br)c2)n[nH]1`, the Potency was active: 2.94 µM. For `O=C(NCCN1CCOCC1)c1cc(-c2cccc(O)c2)on1`, the Potency was “inactive”. In the case of `Cc1ccc(O)c(CCc2ccc(O)cc2)n1`, the Potency is reported as inconclusive [inhibitor, full curve, poor fit]. In the case of `CCOc1ccccc1NC(=O)CCS(=O)(=O)c1ccc2c(c1)CCN2C(C)=O`, the Potency is reported as “inactive”. With `CCc1ccc(NC(=O)CSc2n[nH]c(=O)n2C2CC2)cc1` the Potency was “inactive”. With `CCOc1ccc(-c2nnn(CC(=O)NCc3ccco3)n2)cc1` the Potency was “inactive”. With `COc1cc(NC2c3ccccc3C(=O)N2Cc2ccccc2Cl)cc(OC)c1` (centres undefined) the Potency was inconclusive [inhibitor, single point]. For `Cc1cccc(C(=O)NCC(=O)N2CCN(S(=O)(=O)/C=C/c3ccccc3)CC2)c1`, the Potency was inconclusive [inhibitor, single point]. In the case of `O=[N+]([O-])c1ccc(N2CCCCCC2)c([N+](=O)[O-])c1`, the Potency is reported as “inactive”.
Potency means the concentration at half of the fitted maximal effect; tags describe the fitted curve by direction and shape.
